# Laboratory results taken from the supplement of paper PMC3334620.
# In all, about 33,000 sequences were measured (“E-score (-0.5 to 0.5)”: median about -0.053, highest 2% from about 0.37 on). The list shows a part of the results.
# Target: Hap1 (UniProt P0CE41)
# Assay: PBM E-score (8-mer binding enrichment) (E-score (-0.5 to 0.5)); higher = stronger / more preferred TF binding; most listed sequences are background and not binding sites
# Conditions: protein concentration: 200 nM; construct: GST-DNA-binding domain
# Method in brief: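 Universal all-10-mer Agilent arrays, double-stranded by primer extension on fresh or once-stripped slides, were probed with about 100-200 nM GST-tagged yeast transcription factors made by PURExpress. Fluorescent anti-GST detected bound protein, and masliner normalised the scans. E-scores from the Universal PBM Analysis Suite were given to each ungapped eight-base word pooled with its reverse complement.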
# Chain of UniProt P0CE41 (P0CE41 whole entry): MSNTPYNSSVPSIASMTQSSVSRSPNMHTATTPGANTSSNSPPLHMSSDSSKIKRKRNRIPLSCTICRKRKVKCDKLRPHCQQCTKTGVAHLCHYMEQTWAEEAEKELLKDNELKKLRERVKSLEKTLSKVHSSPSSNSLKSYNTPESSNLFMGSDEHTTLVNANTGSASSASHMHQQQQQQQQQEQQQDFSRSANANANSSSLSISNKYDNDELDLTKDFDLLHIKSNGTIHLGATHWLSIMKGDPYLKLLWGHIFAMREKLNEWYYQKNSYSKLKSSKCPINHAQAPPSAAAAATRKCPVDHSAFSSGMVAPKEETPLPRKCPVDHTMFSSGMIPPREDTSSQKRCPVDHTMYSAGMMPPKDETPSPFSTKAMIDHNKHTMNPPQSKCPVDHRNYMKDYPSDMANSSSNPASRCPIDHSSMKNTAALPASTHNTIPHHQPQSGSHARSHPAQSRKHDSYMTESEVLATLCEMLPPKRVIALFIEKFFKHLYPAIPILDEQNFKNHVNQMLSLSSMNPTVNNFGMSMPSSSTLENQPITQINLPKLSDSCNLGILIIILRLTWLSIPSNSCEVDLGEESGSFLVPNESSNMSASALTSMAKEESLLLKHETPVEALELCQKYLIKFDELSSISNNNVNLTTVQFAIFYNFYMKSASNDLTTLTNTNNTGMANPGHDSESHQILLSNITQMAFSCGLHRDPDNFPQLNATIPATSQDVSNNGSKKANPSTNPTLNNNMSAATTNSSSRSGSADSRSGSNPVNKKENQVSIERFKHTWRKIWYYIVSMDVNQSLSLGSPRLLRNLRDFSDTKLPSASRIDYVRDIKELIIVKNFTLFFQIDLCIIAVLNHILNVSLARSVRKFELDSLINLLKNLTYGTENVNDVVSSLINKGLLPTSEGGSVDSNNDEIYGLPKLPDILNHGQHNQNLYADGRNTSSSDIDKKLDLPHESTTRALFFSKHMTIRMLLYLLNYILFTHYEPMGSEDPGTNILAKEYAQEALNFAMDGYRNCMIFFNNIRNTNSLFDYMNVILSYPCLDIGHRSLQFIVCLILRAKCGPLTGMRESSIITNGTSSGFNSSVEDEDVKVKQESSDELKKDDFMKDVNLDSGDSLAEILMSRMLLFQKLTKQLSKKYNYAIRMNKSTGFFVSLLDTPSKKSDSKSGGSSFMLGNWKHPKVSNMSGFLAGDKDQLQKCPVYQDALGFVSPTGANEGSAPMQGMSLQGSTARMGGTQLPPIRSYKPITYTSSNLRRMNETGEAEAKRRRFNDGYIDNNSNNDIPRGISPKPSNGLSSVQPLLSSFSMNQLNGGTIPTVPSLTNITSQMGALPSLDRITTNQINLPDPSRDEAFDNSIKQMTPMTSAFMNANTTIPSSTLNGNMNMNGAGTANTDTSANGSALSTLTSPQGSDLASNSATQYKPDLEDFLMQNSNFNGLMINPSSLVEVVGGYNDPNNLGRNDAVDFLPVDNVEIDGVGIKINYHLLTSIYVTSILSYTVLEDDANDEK
row,Sequence,PBM E-score
1,CGTTTGAG,-0.0797
2,CCACACGA,-0.254
3,CAAATTCA,-0.061
4,AATGTCCA,-0.104
5,GTTTGGGA,-0.0806
6,AACAAGCT,-0.0404
7,CCACCCGC,0.217
8,ACACCACT,-0.107
9,GTAATTGA,0.00674
10,GATTTACC,0.313
11,CTAGCTAC,-0.257
12,ATGGCAAT,-0.0398
13,GACCGGGA,0.329
14,ATACCTAG,-0.084
15,AAGAGGAG,-0.103
16,AGTGTGTA,-0.226
17,GAGTTATC,0.278
18,CACCTTTA,-0.116
19,GATTCAAA,-0.158
20,CATCCCAC,-0.052
21,GATAGTGC,-0.0408
22,ACTAATGG,0.0055
23,CGGCGCCA,0.246
24,CCTGACAC,-0.16
25,ACGCCCCG,0.193

row,Sequence,PBM E-score
1,CAGAGCCG,0.108
2,ACCGCATC,0.173
3,CGCGATTC,0.2
4,AGATCACC,0.00153
5,ACACTCGT,-0.275
6,CTCATCTA,-0.061
7,TACCGGGA,0.387
8,AGTACAGA,-0.047
9,AACATTAA,-0.0375
10,CGAATCAG,-0.212
11,AGCTCACC,0.043
12,AGTCCGAG,0.428
13,ACAACCAT,-0.0258
14,AGCACTGG,-0.267
15,CCACTGAG,-0.235
16,GATCCAAA,0.0217
17,TACTACTA,0.0814
18,GCTTCATA,-0.0731
19,AAGCAAAA,-0.142
20,CACACGGG,0.0767
21,CTGTGGGA,-0.306
22,TAGAGAAA,-0.125
23,GCGATAGC,0.00865
24,CTAATTTC,0.0933
25,CAAATACA,-0.149

row,Sequence,PBM E-score
1,CAAACAGG,-0.203
2,CAGCGGGC,0.123
3,AATACAAG,-0.0861
4,CAGCTCCA,-0.231
5,CCGCCCCC,-0.0463
6,CTCGAAAC,-0.113
7,CCTGCTCC,0.14
8,AATCATGA,-0.133
9,TCAAGACA,-0.154
10,AGTTTGGC,-0.0614
11,AATAAAAG,-0.0131
12,CCAAGTCA,-0.111
13,AAAAACTT,-0.0448
14,CAGATTCG,0.138
15,CCAGACCC,-0.0192
16,ACCAGATG,-0.266
17,CCGAGGGA,0.264
18,CGGGCCCC,0.293
19,GGTGACAC,0.0248
20,AGGCGCCA,0.0364
21,GGGACTCA,-0.148
22,TCGCACGA,-0.0928
23,ATTTCCTC,0.127
24,CATAGCGG,0.3
25,AACTCGTA,-0.14

row,Sequence,PBM E-score
1,CGCTCTGC,-0.0103
2,CGAGAAAG,0.156
3,AAGTTTGC,-0.0358
4,CGAGCAGA,0.0783
5,GCCGCGGC,0.361
6,AACGCACA,-0.00776
7,ATCATGGA,-0.318
8,GGGTTAAA,0.226
9,GGTCCGAC,0.392
10,AATGGAGC,-0.174
11,CAGTTTCG,0.039
12,CTTCTGTA,-0.236
13,GCGACCGA,0.253
14,AACTTCCC,-0.1
15,CTACGAGA,-0.0738
16,ATGCTTGG,-0.181
17,CATGCGCG,0.119
18,ATCGATCC,0.0901
19,AAGAAGTC,-0.129
20,ATTTTTCA,0.0304
21,AGAAGAGA,-0.208
22,CCTCCCCG,0.246
23,TAACCGCA,0.165
24,CGATCAAA,-0.0429
25,AGGAATTA,0.17

row,Sequence,PBM E-score
1,CACTCGAA,-0.151
2,CTCTACCA,-0.0837
3,AGAGGGAT,-0.248
4,AGTAGTGA,-0.1
5,AGGGAGGG,0.13
6,GGCTATCA,-0.0699
7,GCGGACAA,0.304
8,AAGAGTTG,-0.157
9,AGTATGCA,-0.171
10,CAGAGGCG,-0.114
11,AAGTGAAT,0.0167
12,CAGTCTTC,-0.18
13,TAGTTACA,-0.143
14,CACCCGGC,0.282
15,GTCCGGAC,0.454
16,CTCGCCAG,-0.168
17,ACTCGCTG,0.0106
18,GTTCCAAC,0.0858
19,ACCTCAGG,-0.269
20,ACCAATCG,0.0386
21,AGAATGAC,-0.118
22,AAGTCGGA,0.169
23,AATCAGAT,-0.149
24,TGCCGCCA,-0.0312
25,GAAGGAAC,0.00601

row,Sequence,PBM E-score
1,CGTATACG,0.122
2,AACTAGAC,0.0207
3,AGCTCGAG,-0.09
4,GAATTTCC,0.198
5,ATCAGGCC,0.0138
6,GAGCGCAC,0.138
7,GTCATATA,-0.0533
8,CGGAAGAG,0.139
9,GGATATGA,0.114
10,AAAAATAC,-0.00066
11,ACAAACTC,0.0453
12,ACCTACGG,0.0993
13,CTCTCGAA,-0.332
14,GTGAACTA,-0.0762
15,GCCCGCCC,0.179
16,GTTAACCA,-0.099
17,CACAGTAA,-0.213
18,GAAAGTGC,-0.0198
19,CTTTAAGA,0.112
20,GAGCGACA,-0.0576
21,GCTGAGCA,-0.254
22,ACCGTTCA,0.101
23,ACGCAGAC,-0.217
24,ATGGGTGG,-0.0114
25,ATGTGACG,-0.166

row,Sequence,PBM E-score
1,GTGCAAGA,-0.0817
2,ACTCACAT,-0.261
3,ATTATTCC,0.227
4,AAAAGAAC,-0.0884
5,CTCGATAA,-0.00886
6,CCCCGTCG,0.0558
7,AGACACAT,-0.14
8,GTAGCTGA,-0.121
9,CGAAGGTA,0.0118
10,GCACAGAC,0.0195
11,ACATTTGG,0.0134
12,ATAAAGGA,-0.123
13,AGTAGCGA,-0.215
14,AGTCCGGA,0.452
15,CCAATAAA,0.0119
16,GACCTGTA,-0.0141
17,CTGGTTGA,-0.268
18,GGAAGCTA,-0.0132
19,CGGTATGC,0.131
20,AGACACAG,-0.202
21,CACCACGA,-0.096
22,ACGGCATG,0.0675
23,CAGTATGA,-0.125
24,AAAATAAT,-0.0158
25,TCGCGAAA,0.226

row,Sequence,PBM E-score
1,TACGAGAA,-0.0208
2,CCGCATCG,0.149
3,TGAAATAA,-0.17
4,CTAAAATC,0.0164
5,GCTTTTAA,0.184
6,AACAGGAG,-0.12
7,CGCGTGAC,0.0236
8,GTGGTACA,-0.216
9,ACCGCTTG,0.0486
10,CAACGGGA,0.0811
11,CGACATCC,0.0972
12,ACGTTCTA,-0.159
13,AAGGCAAA,-0.28
14,AGATTTCC,0.161
15,CTGGTCTA,-0.142
16,GCCGACTA,0.0842
17,AGTAGAAT,-0.224
18,GCCGGAGA,0.372
19,CTGCGCTA,-0.139
20,CCATGACG,-0.0309
21,AGACGAGC,-0.272
22,GCCTCCAA,-0.124
23,CTTTATAC,0.152
24,CGCCAGAC,-0.101
25,ACAAGTAA,-0.176

row,Sequence,PBM E-score
1,CAGACTCC,-0.146
2,GAATACCC,0.178
3,ATGATTCA,-0.2
4,CCGTCATC,0.173
5,AGATTAGA,-0.145
6,GAGCTGCA,-0.00591
7,AAGTTCGT,-0.181
8,ATGACCTA,-0.119
9,CGCGCCCC,0.202
10,ACTAATCT,0.122
11,CATCCGCC,0.244
12,AGGCTGGA,-0.281
13,ACACGATC,-0.0737
14,GAATCGGC,0.341
15,CAAAGACC,-0.00942
16,CACCCATA,-0.267
17,GATGGACA,-0.113
18,CCAGGTTA,-0.202
19,GTTCAAAA,0.0109
20,ACCCTGAG,-0.175
21,GACGCACA,0.0187
22,ATAACTAG,-0.0842
23,CTATGATC,-0.0588
24,ACACCTCA,-0.254
25,ACCGGCTC,0.279

row,Sequence,PBM E-score
1,ACTCTCGG,0.348
2,TCCGAAAA,0.393
3,ACGTGACC,-0.139
4,GTGAGAGA,-0.0626
5,CATCTGAG,-0.216
6,AGGGGTGC,-0.317
7,GATAAGCA,0.147
8,ACGCAGCA,-0.121
9,AGGCACAC,-0.148
10,CTCCGCAA,0.259
11,CGTTTATA,0.136
12,AGAAGATA,0.128
13,CCATTAAA,0.0191
14,CACTGGCC,-0.0906
15,CCTCGAGG,-0.304
16,CTTCCGGC,0.275
17,CGATACTA,0.21
18,AGCTTCGG,0.292
19,ATGATTGC,-0.039
20,CACTATCG,0.167
21,TGATGGCA,-0.177
22,GACTAACC,-0.00978
23,GCTGCTTA,-0.0741
24,ACATAGTG,0.0008
25,CCGTTTTA,0.254

row,Sequence,PBM E-score
1,CCAATTGG,-0.226
2,CGCTCGAA,0.104
3,ACAAACCG,0.12
4,GACAAGTA,0.0622
5,AAACCACA,-0.0624
6,AGAGCTTC,-0.12
7,AGGTCCTG,-0.0186
8,ACGAAACG,-0.0502
9,CACTCAAC,-0.0685
10,GGTGGATA,0.00336
11,TAGATAAA,0.0219
12,CACCGGGG,0.339
13,GATACTGC,-0.0243
14,AGACGTCC,0.00542
15,ATCTGAAA,-0.05
16,CCCTGTAG,0.0186
17,CGGTGGGA,0.0972
18,CCCACAAC,-0.162
19,ATAGGCCA,0.109
20,AAAACTCT,-0.127
21,CACTCGCA,-0.0612
22,ATTCACTG,-0.23
23,AGCGTGCA,-0.0508
24,CTAATGGC,0.014
25,CAATTGGA,-0.157

row,Sequence,PBM E-score
1,ATGGTTTC,-0.0197
2,ACCGGGCG,0.385
3,ATGCTAGC,0.0591
4,AGTACTGA,-0.182
5,AATCAGTC,-0.116
6,CAGACCGC,0.156
7,ACTATCAG,-0.256
8,CACATTCA,-0.14
9,CCAAAAAC,0.0207
10,AGATCTCG,0.0764
11,AAGCAAGA,-0.126
12,ACCATTGA,-0.256
13,CTTATAGA,-0.153
14,TAAGTCAA,-0.235
15,GACAATCC,0.113
16,GTATCGTA,-0.168
17,GCCTACGA,-0.0526
18,ACCACGCC,-0.0562
19,TCGACCGA,0.393
20,CGGCCCGA,0.398
21,CAACCCCC,-0.182
22,CGAATAAG,0.0623
23,CAACACGA,-0.182
24,CAAGTCCA,-0.222
25,AACGCAAG,-0.183

row,Sequence,PBM E-score
1,AGGAGAAG,-0.149
2,AATAATAT,0.22
3,CTTGTCAA,-0.0852
4,AGCCATTC,-0.142
5,AGTACGAC,0.0148
6,CCACATGG,-0.185
7,CACGTGTA,-0.109
8,GACATCTA,-0.0742
9,AAGTCTGA,-0.412
10,CGAGGCCG,0.158
11,CTAGGGAC,-0.246
12,CAGCCATA,-0.136
13,CACAGAAC,-0.226
14,GTGTCTCA,-0.187
15,GAGGTCCA,-0.0572
16,CAAACTGG,-0.224
17,ACGGGGAT,0.383
18,CACCCTCG,-0.0066
19,AACGAATA,-0.0397
20,GCAGTAGC,-0.133
21,TTGGAAAA,-0.222
22,AGGCAATA,-0.181
23,CTTGGGTC,-0.126
24,AGCTGTTG,-0.172
25,TCGAGTAA,-0.183

row,Sequence,PBM E-score
1,AGGCGCCT,-0.158
2,ATGAGAAG,-0.185
3,ACGCGAGC,0.0186
4,CCCCCCGC,-0.113
5,GGCAGGCC,0.00635
6,GCTGTGCA,-0.127
7,CAAAGGTG,-0.242
8,GGCCAGCA,-0.0771
9,AATCCTAT,0.204
10,CCAGGTTC,-0.153
11,GGAGACAA,0.22
12,CCCAATCC,-0.0192
13,CCATCAGC,-0.226
14,CTTTCCTC,-0.145
15,GCGACCCA,0.0347
16,AGAGGATA,-0.198
17,ATGATCCG,0.3
18,AGTGGTAC,-0.295
19,ACGTTCCG,0.208
